Screen size: about 45,000 compounds; about 65 (0.1%) were called active. Calls follow the shape of the dose curve; as a rule, active = well fitted activation curve with a large enough effect; inconclusive = small, poorly fitted or top-dose-only effect; inactive = no such curve, though single readings can be large or run the other way. Some of the results follow.
What follows are compounds tested against Galactocerebrosidase (Homo sapiens) (UniProt P54803) (assay: A Novel Cell-Based Assay to Identify Small Molecules for B -Galactocerebrosidase). Settings: 145M-Twi-hGALC-G270D cells (Twitcher mouse brain line with human GALC G270D), HMU-beta-Gal fluorescence, 48 h; series mostly up to 57.5 µM; activation: at the top concentration.
Sequence of UniProt P54803 (P54803 whole entry, looked up): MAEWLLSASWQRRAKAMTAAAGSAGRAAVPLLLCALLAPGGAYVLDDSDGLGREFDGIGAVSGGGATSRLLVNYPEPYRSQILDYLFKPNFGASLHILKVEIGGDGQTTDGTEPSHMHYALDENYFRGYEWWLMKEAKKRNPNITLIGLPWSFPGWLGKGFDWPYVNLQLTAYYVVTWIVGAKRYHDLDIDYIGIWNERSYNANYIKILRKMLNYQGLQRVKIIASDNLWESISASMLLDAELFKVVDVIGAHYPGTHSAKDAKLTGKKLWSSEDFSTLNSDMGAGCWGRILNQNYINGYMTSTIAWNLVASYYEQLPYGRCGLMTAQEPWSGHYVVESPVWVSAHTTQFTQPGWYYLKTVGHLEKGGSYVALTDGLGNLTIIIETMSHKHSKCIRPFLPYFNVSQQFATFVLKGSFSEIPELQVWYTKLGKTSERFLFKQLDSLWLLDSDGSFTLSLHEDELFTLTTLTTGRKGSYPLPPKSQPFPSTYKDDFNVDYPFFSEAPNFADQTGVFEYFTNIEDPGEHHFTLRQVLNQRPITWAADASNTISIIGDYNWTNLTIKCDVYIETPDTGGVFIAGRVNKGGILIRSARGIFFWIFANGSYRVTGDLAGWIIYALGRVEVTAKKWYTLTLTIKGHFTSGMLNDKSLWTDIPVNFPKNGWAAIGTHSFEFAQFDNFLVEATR
Summary of the method: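 Fluorogenic HMU-b-Gal hydrolysis (0.1 mM final, pH 5.2 citrate-phosphate with 1 mg/mL sodium taurocholate; carbonate stop buffer) measures mutant GALC activity after compound treatment of live 145M-Twi Twitcher brain cells stably carrying human GALC-G270D, with wild-type GALC line alongside; activation sought.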
Also: 0% is about no effect; nearly all actives have a fitted effect of over 65% in size.

activation, inactive:
Cc1cc(C)c(S(=O)(=O)NCC(c2ccco2)N2CCOCC2)c(C)c1 (centres undefined) -8.89%
CCOC(=O)N1CCc2c(sc3c2c(=O)n(Cc2ccccc2)c(=O)n3Cc2cccc(C)c2)C1 -4.2%
Cc1ccccc1Nc1nn2c(=O)c3ccc(C(=O)NCc4ccccc4)cc3nc2s1 -7.8%
CCn1c(=O)cc(OCC(=O)NCc2ccccc2OC)c2ccccc21 -14.7%
COc1ccc(NC(=O)c2cc(C)nc3c2c(C)nn3-c2ccc(C)cc2)cc1OC -9.2%
COc1ccccc1-c1nnc(C2CCN(C(=O)c3cccc(C)c3)CC2)o1 -14.8%
O=C(NCc1ccccc1)C(=O)NCC(c1ccco1)S(=O)(=O)c1ccc(Cl)cc1 (centres undefined) -8.44%
CCOc1ccc(NC(=O)CN2CCN(S(=O)(=O)c3ccc(OC)cc3)CC2)cc1 -11.7%
CCOc1cc(OCC)cc(C(=O)Nc2cccc(-c3nc4ccccc4[nH]3)c2)c1 -21.2%
COc1cccc(Cn2c(=O)n(-c3cccc(Cl)c3)c(=O)c3c4c(sc32)CN(C(C)=O)CC4)c1 -33.4%
C=CCC(CC=C)(CNC(=O)C(=O)Nc1ccc(C)cc1)c1ccccc1 21.7%
CSc1ncc(Cl)c(C(=O)Nc2ccc(S(=O)(=O)Nc3nccc(C)n3)cc2)n1 -8.3%
CC(=O)c1ccc(NC(=O)CCc2c(C)nc3c(c2C)c(=O)n(C)c(=O)n3C)cc1 -1.43%
CC(=O)C1=C(c2ccccc2)N(C(C)=O)n2c(nnc2C2CCCCC2)S1 -26.8%
CCCCN(C)CCCNC(=O)CN1N=C(c2ccc(OC)cc2)CCC1=O -5.14%
Cc1c2cnn(CC(=O)N3CCN(c4ccccc4)CC3)c(=O)c2c(C)n1Cc1ccccc1Cl -26.1%
CC1=C(C)C(=O)C(C(CCCCCC(=O)O)c2ccccc2)=C(C)C1=O (centres undefined) -6.46%
CCCCN(C)CCCNC(=O)C1CCN(S(=O)(=O)CC)CC1 -10.3%
Cc1ccc(CCNC(=O)c2ccc3[nH]c(C)c(C)c3c2)cc1 9.8%
Cc1cc(C)cc(-n2cnc3cc(C(=O)NC4CCCCCC4)ccc32)c1 -0.305%
COc1ccc(CCNC(=O)c2cc3n(n2)CCCN(Cc2ccc(C)cc2)C3=O)cc1OC -14.3%
CCN(CC)c1ccc(NC(=O)CN2CCN(c3ccccc3F)CC2)cc1 -7.3%
Cc1[nH]c2ccc(Br)cc2c1CCNC(=O)c1cc2ccccc2oc1=O -3.7%
O=C(O)Cn1cnnn1 -11.3%
COC(=O)CN1C(=O)C(C)(C)c2cc(S(=O)(=O)Nc3ccc(Br)cc3F)ccc21 -23.5%
CCOc1ccc(C2=NC(c3cccs3)=Nc3ccc(CC)cc3N2)cc1OCC -6%
O=S(=O)(NCCS(=O)(=O)N1CCN(c2cccc(Cl)c2)CC1)c1ccc(F)cc1 -15.3%
O=C(NCc1ccccc1F)c1sc2ncccc2c1-n1cccc1 -15.3%
CCn1cc2nc(SCC(=O)Nc3ccc(C)cc3)n(Cc3ccc(C)cc3)c(=O)c2n1 -17.7%
Cc1cc(C)n(CCc2nc3c4ccccc4nc(N4CCN(c5cccc(C)c5C)CC4)n3n2)n1 -18.5%
Cc1cccc(NC(=O)CN2C(=O)C(c3ccccc3)=NC23CCC(C)CC3)c1 (centres undefined) -10.4%
CC(=O)c1cccc(-n2c(=O)c3c4c(sc3n(Cc3cccc(C)c3)c2=O)CN(C(C)=O)CC4)c1 -16.3%
COc1ccc(-n2nc3cc(C)c(NC(=O)c4ccc(-c5ccc(Br)cc5)o4)cc3n2)cc1 -12.1%
CNCCc1ccccn1 -18.1%
CC(=O)N1CCCc2cc(S(=O)(=O)N3CCCC(C(=O)Nc4ccc(C)cc4C)C3)ccc21 (centres undefined) -24.8%
COCCNC(=O)C1CCN(Cc2cc3ccccc3n2Cc2ccc(C)cc2)CC1 -13.1%
COCCn1c(CNC(=O)c2cccc(C)c2)nc2cccnc21 -7.47%
COc1ccc(NC(=O)c2ccc(NC(=O)N3CCSc4ncccc43)cc2)cc1 -6.3%
COc1ccccc1NC(=O)C1=C(C)Nc2nc(SCc3ccccc3)nn2C1c1cccc(O)c1 (centres undefined) 20.8%
CCCCNC(=O)C(CC)Sc1nc2ccccc2c(=O)n1Cc1ccco1 (centres undefined) -14.5%
COCCCNC(=O)Cn1c(=O)n(-c2ccc(C)c(C)c2)c(=O)c2c3c(sc21)CCCCC3 -11.7%
COc1ccccc1CNC(=O)c1ccc2[nH]c(C)c(C)c2c1 -4.91%
COc1ccc(NC(=O)c2nnn(Cc3nc(-c4cc(OC)c(OC)c(OC)c4)oc3C)c2C)cc1Cl 10.7%
O=C(COc1ccc(F)cc1)Nc1nnc(S(=O)(=O)N2CCCC2)s1 -2.31%
COc1ccc(OC)c(NS(=O)(=O)c2ccc(-n3cccn3)cc2)c1 -4.28%
CCOC(=O)c1cccc(NC(=O)Cn2c(=O)c3cccn3c3ccccc32)c1 -31.2%
Cc1ccc(C(=O)c2sc(Nc3ccccc3)c(S(=O)(=O)c3ccccc3)c2N)c(C)c1 -22.8%
Cc1cccc(N(C)S(=O)(=O)c2nnc(NC(=O)c3cccs3)s2)c1 -10.8%
Cc1cc(C)n2nc(CNC(=O)c3c(F)cccc3F)nc2n1 -19.3%
NCCCCCC(=O)O -19.7%
COCCNC(=O)c1sc2ncccc2c1-n1c(C)ccc1C -15.3%
CCC(C)n1c(=O)c2sccc2n2c(CCCC(=O)NCc3ccccc3Cl)nnc12 (centres undefined) -7.69%
COCCNC(=O)CN1C(=O)c2cccnc2Sc2ccccc21 -4.1%
O=C(Cn1ncc2c1-c1ccccc1OC2)N1CCN(c2ccccc2)CC1 -18.5%
COc1cccc2c(C)cc3nnc(SCC(=O)Nc4ccc(C)cc4)n3c12 -3.98%
O=C(c1ccc2c(c1)OCO2)c1cn(Cc2ccc(Cl)cc2)c2ccc(F)cc2c1=O -2.73%
Cc1ccc(-c2cn3cccnc3n2)cc1NC(=O)Nc1ccc(F)cc1 -12.9%
COc1ccc2c(c1)c(=O)c(S(=O)(=O)c1ccc(F)cc1)cn2Cc1ccccc1Cl 9.03%
CC(C)(C)OC(=O)N1CCC(c2c(C(=O)N3CCN(c4ccccn4)CC3)cnn2-c2ccc(F)cc2)CC1 -10.9%
CCN(CC)S(=O)(=O)c1ccc(C(=O)NCCSc2c(-c3ccc(F)cc3)[nH]c3ccccc23)cc1 -15.6%
CCCCOc1ccc(C(=O)N2CCCCC2CCN2CCOCC2)cc1 (centres undefined) -10.8%
CC1CCC(NC(=O)c2ccc(CS(=O)(=O)c3ccc(Cl)cc3)o2)CC1 (centres undefined) 20.2%
COc1ccc(CNC(=O)c2cnc(N(C)C)nc2)cc1 -15.1%
CCCOc1cccc(C(=O)N(Cc2sccc2C)C2CCS(=O)(=O)C2)c1 (centres undefined) -5.95%
